The antibiotic and cytotoxicity screens of Wong et al. (2023)
This is one part of the list.

Key:
HSkMC = human skeletal muscle cells; test: cytotoxicity call (relative viability < 0.9); conditions: 10 µM
HepG2 = test: cytotoxicity call (relative viability < 0.9); conditions: 10 µM
S. aureus RN4220 = test: growth inhibition call (relative growth <= 0.2); conditions: 50 µM

C[C@H]1CN([C@@H](C)CO)C(=O)c2cc(NC(=O)Cc3cn(C)c4ccccc34)ccc2O[C@H]1CN(C)CC1CCCCC1
inactive: cytotoxicity call (HSkMC) | cytotoxicity call (HepG2) | growth inhibition call (S. aureus RN4220)

CCCC(=O)C1(c2ccccc2)CCN(C(=O)[C@@H](Cc2ccc(OC)cc2)NC(=O)[C@@H](N)Cc2cncn2C)CC1
inactive: cytotoxicity call (HSkMC) | cytotoxicity call (HepG2) | growth inhibition call (S. aureus RN4220)

COc1cccc(-c2ccc3c(c2)O[C@H](CN(C)C(=O)C2CCOCC2)[C@@H](C)CN([C@@H](C)CO)S3(=O)=O)c1
inactive: cytotoxicity call (HSkMC) | cytotoxicity call (HepG2) | growth inhibition call (S. aureus RN4220)

O=C1[C@@H]2[C@@H](C(=O)N1CCO)[C@@H]1C=C[C@@H]2C1
inactive: cytotoxicity call (HSkMC) | cytotoxicity call (HepG2) | growth inhibition call (S. aureus RN4220)

C[C@@H]1CN([C@H](C)CO)C(=O)c2cc(NS(=O)(=O)c3ccc(F)cc3)ccc2O[C@@H](C)CCCCO[C@H]1CN(C)Cc1ccccc1
inactive: cytotoxicity call (HSkMC) | cytotoxicity call (HepG2) | growth inhibition call (S. aureus RN4220)

Cc1ccc(S(=O)(=O)Nc2cccc3c2O[C@@H](CN(C)S(=O)(=O)c2ccccc2)[C@@H](C)CN([C@@H](C)CO)C3=O)cc1
inactive: cytotoxicity call (HSkMC) | cytotoxicity call (HepG2) | growth inhibition call (S. aureus RN4220)

COCC(=O)Nc1ccc2c(c1)C(=O)N(C)[C@@H]1CC[C@@H](CC(=O)NC3Cc4ccccc4C3)O[C@@H]1CO2
inactive: cytotoxicity call (HSkMC) | cytotoxicity call (HepG2) | growth inhibition call (S. aureus RN4220)

COc1ccc2c3c([nH]c2c1)[C@H](CO)N(C[C@]13CN(CC2CCOCC2)C1)C(=O)Nc1c(noc1C)C
inactive: cytotoxicity call (HSkMC) | cytotoxicity call (HepG2) | growth inhibition call (S. aureus RN4220)

C[C@@H]1CCCCO[C@@H](CN(C)CC2CCCCC2)[C@@H](C)CN([C@@H](C)CO)C(=O)c2cc(NC(=O)Cc3ccccc3)ccc2O1
inactive: cytotoxicity call (HSkMC) | cytotoxicity call (HepG2) | growth inhibition call (S. aureus RN4220)
